The other results are listed elsewhere or left out. Single values are uncertain, as repeats are few or missing.
Each molecule was assayed on A2058 (assay: cell count relative to DMSO control; melanoma cells; higher = more viable cells). Conditions: library dose: low library concentration; 72 h.
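Note: cell number obtained by counting DAPI-stained nuclei in high-throughput microscope images with image analysis software, screen run in 1,536-well plates.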

Compound	cell count
Cc1cn(-c2cc(NC(=O)c3ccc(C)c(Nc4nccc(-c5cccnc5)n4)c3)cc(C(F)(F)F)c2)cn1 [nilotinib] + O=C(Oc1ccc([N+](=O)[O-])cc1)N1CCC(C(O)(c2ccc3c(c2)OCO3)c2ccc3c(c2)OCO3)CC1 [JZL184] (first compound 0.2 µM, partner dose 1 µM)	87.2%
CN(c1ncccc1CNc1nc(Nc2ccc3c(c2)CC(=O)N3)ncc1C(F)(F)F)S(C)(=O)=O + Cc1cc(SCc2sc(-c3ccc(C(F)(F)F)c(F)c3)nc2C)ccc1OCC(=O)O [GW0742] (first compound 0.08 µM, partner dose 2 µM)	82.6%
C[C@@H](Oc1cc(-c2cnn(C3CCNCC3)c2)cnc1N)c1c(Cl)ccc(F)c1Cl [Crizotinib] + Cc1cc(SCc2sc(-c3ccc(C(F)(F)F)c(F)c3)nc2C)ccc1OCC(=O)O [GW0742] (first compound 0.2 µM, partner dose 2 µM)	84.8%
O=c1[nH]nc(Sc2ncc([N+](=O)[O-])s2)n1-c1ccc2c(c1)OCCO2 + Cc1cc(SCc2sc(-c3ccc(C(F)(F)F)c(F)c3)nc2C)ccc1OCC(=O)O [GW0742] (first compound 0.2 µM, partner dose 2 µM)	122%
CC[C@]1(O)C[C@H]2CN(CCc3c([nH]c4ccccc34)[C@@](C(=O)OC)(c3cc4c(cc3OC)N(C=O)[C@H]3[C@@](O)(C(=O)OC)[C@H](OC(C)=O)[C@]5(CC)C=CCN6CC[C@]43[C@@H]65)C2)C1 [vincristine] + O=C(Oc1ccc([N+](=O)[O-])cc1)N1CCC(C(O)(c2ccc3c(c2)OCO3)c2ccc3c(c2)OCO3)CC1 [JZL184] (first compound 0.0001 µM, partner dose 1 µM)	22.5%
CC(=O)c1c(C)c2cnc(Nc3ccc(N4CCNCC4)cn3)nc2n(C2CCCC2)c1=O [palbociclib] + C/C(O)=C(\C#N)C(=O)Nc1cc(Br)ccc1Br [LFM-A13] (first compound 0.04 µM, partner dose 2 µM)	87.2%
CN(c1ncccc1CNc1nc(Nc2ccc3c(c2)CC(=O)N3)ncc1C(F)(F)F)S(C)(=O)=O + C/C(O)=C(\C#N)C(=O)Nc1cc(Br)ccc1Br [LFM-A13] (first compound 0.08 µM, partner dose 2 µM)	85.9%
O=C(Nc1cc(C(F)(F)F)cc(C(F)(F)F)c1)c1cc(Cl)ccc1O + C/C(O)=C(\C#N)C(=O)Nc1cc(Br)ccc1Br [LFM-A13] (first compound 0.016 µM, partner dose 2 µM)	96.3%
N#CC[C@H](C1CCCC1)n1cc(-c2ncnc3[nH]ccc23)cn1 [ruxolitinib] + C/C(O)=C(\C#N)C(=O)Nc1cc(Br)ccc1Br [LFM-A13] (first compound 1 µM, partner dose 2 µM)	90.8%
O=C(/C=C/c1cccnc1)NCCCCC1CCN(C(=O)c2ccccc2)CC1 + C/C(O)=C(\C#N)C(=O)Nc1cc(Br)ccc1Br [LFM-A13] (first compound 0.01 µM, partner dose 2 µM)	94.5%
Cn1cnc2c(F)c(Nc3ccc(Br)cc3Cl)c(C(=O)NOCCO)cc21 [selumetinib] + O=C(Oc1ccc([N+](=O)[O-])cc1)N1CCC(C(O)(c2ccc3c(c2)OCO3)c2ccc3c(c2)OCO3)CC1 [JZL184] (first compound 0.015 µM, partner dose 1 µM)	103%
Nc1ncn([C@H]2C[C@H](O)[C@@H](CO)O2)c(=O)n1 [decitabine] + O=C(Oc1ccc([N+](=O)[O-])cc1)N1CCC(C(O)(c2ccc3c(c2)OCO3)c2ccc3c(c2)OCO3)CC1 [JZL184] (first compound 0.1 µM, partner dose 1 µM)	79.9%
O=C(/C=C/c1cccnc1)NCCCCC1CCN(C(=O)c2ccccc2)CC1 + Cc1cc(SCc2sc(-c3ccc(C(F)(F)F)c(F)c3)nc2C)ccc1OCC(=O)O [GW0742] (first compound 0.01 µM, partner dose 2 µM)	100%
CS(=O)(=O)c1ccc(C(=O)Nc2ccc(Cl)c(-c3ccccn3)c2)c(Cl)c1 [vismodegib] + C/C(O)=C(\C#N)C(=O)Nc1cc(Br)ccc1Br [LFM-A13] (first compound 1 µM, partner dose 2 µM)	112%

From the supplement of paper PMC4604168 (melanoma cell lines)
